Test results as given in article PMC4336329 (PLoS ONE, 2015).
Screen size: about 310,000 compounds; about 2,200 (0.71%) showed an effect of 50% or more. Effects have a minus sign here. Some of the results follow.

Target: human ether-à-go-go-related gene (hERG) potassium channel (human, UniProt Q12809)
Experiment: primary screen, population patch clamp on CHO cells stably expressing hERG

Sequence of human ether-à-go-go-related gene (hERG) potassium channel (Q12809 whole entry, looked up): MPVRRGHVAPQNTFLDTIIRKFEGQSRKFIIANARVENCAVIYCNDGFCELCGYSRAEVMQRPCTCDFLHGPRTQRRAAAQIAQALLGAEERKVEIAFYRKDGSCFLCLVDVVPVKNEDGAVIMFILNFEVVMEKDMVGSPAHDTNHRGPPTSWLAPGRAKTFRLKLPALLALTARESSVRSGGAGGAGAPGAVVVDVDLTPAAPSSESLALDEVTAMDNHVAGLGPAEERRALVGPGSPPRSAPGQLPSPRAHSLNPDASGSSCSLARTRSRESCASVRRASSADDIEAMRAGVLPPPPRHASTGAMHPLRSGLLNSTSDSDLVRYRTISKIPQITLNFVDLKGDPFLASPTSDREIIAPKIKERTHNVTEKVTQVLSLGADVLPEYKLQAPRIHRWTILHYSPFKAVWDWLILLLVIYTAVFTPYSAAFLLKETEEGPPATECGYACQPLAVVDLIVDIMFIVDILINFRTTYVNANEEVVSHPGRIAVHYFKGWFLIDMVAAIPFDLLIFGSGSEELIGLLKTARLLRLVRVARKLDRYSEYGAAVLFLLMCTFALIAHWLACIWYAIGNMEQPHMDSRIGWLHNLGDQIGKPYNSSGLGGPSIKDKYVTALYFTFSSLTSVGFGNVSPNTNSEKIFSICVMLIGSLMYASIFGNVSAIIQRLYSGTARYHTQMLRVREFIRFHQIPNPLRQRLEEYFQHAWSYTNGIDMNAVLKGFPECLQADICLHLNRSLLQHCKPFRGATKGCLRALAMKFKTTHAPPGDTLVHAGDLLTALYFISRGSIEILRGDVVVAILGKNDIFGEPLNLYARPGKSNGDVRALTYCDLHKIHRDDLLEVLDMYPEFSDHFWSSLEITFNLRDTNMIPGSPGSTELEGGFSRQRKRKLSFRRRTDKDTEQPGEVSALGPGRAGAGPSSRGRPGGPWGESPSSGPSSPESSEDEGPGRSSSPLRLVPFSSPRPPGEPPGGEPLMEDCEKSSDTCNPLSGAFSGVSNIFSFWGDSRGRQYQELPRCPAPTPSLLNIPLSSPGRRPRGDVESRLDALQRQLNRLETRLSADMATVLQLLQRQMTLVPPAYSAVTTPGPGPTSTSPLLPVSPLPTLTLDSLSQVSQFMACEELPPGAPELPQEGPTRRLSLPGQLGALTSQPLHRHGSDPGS

| Compound | hERG current change (%, negative = inhibition) at 1uM |
| --- | --- |
| Cc1ccc(C)n1-c1nnc(N2CCC(C(=O)NCCCN3CC(C)CC(C)C3)CC2)s1 (stereo not drawn) | -3.35% |
| CC(NC(=O)c1ccco1)C(=O)N1CCN(c2cccc(C(F)(F)F)c2)CC1 (stereo not drawn) | 6.52% |
| COc1ccc(C(=O)O)cc1S(=O)(=O)NCCN(C)C | 6.05% |
| C=CCNC(=O)c1cc(-c2ccc(Br)cc2)on1 | -4.93% |
| O=c1c(O)c(-c2ccc3c(c2)OCO3)oc2ccccc12 | 2.62% |
| CCCCN(CCCC)CCCNC(=O)CN1C(=O)COc2ccc(S(=O)(=O)N3CCC(C)CC3)cc21 | -19.8% |
| CN(Cc1cn(-c2ccccc2)nc1-c1ccc(Cl)cc1)C(=O)CCC(=O)O | 7.26% |
| Cc1ccccc1N1C(=O)c2cccc3c(N(C)CCO)ccc(c23)C1=O | -18.5% |
| O=C(CNS(=O)(=O)c1ccc(F)cc1)N1CCOCC1 | 13.6% |
| Cc1cc(C)c(NC(=O)COC(=O)C2CCN(c3ccc(C(F)(F)F)cn3)CC2)c(Cl)c1 | 7.15% |
| COc1ccc(NC2CCCN(C(=O)c3cccc(C)n3)C2)cc1OC (stereo not drawn) | 11.1% |
| CCCN1C(=O)/C(=C/c2ccc(OCc3ccc(C(=O)O)cc3)c(OC)c2)NC1=S | 11.9% |
| COc1ccc(O)c(-c2cc(-c3cccs3)[nH]n2)c1 | 4.98% |
| CCN(CC)CCCN(Cc1cc2cc3c(cc2[nH]c1=O)OCO3)C(=S)Nc1ccc(OC)cc1 | 0.996% |
| C(=C\c1ccccn1)/c1ccccn1 | 9.49% |
| CCOC(=O)C1CCN(C(=O)CN2C(=O)C(CC)Oc3ccccc32)CC1 (stereo not drawn) | 5.67% |
| COc1ccc(C(=O)Nc2ccnn2C2CCN(Cc3ccn[nH]3)CC2)cc1 | 9.17% |
| Cc1ccc(NC(=O)CCNC(=O)c2ccccc2Cl)nc1 | 10.5% |
| Cc1c(C(=O)NCCN2CCOCC2)sc2nc(-c3ccc(F)cc3)cn12 | -1.49% |
| O=C(CSc1nnc(NC(=O)C2CCC2)s1)NC1CC1 | 11.3% |
| COC(=O)CN1C(=O)[C@H]2[C@@H](/C=C/c3ccccc3)N3C(=O)CN(Cc4ccccc4)C(=O)[C@@]3(C)[C@H]2C1=O | -2.29% |
| CCSc1ccc(-c2nn(-c3ccccc3)cc2/C=C(/C#N)C(=O)NC)cc1 | 7.23% |
| CCN(CC)c1ccc(N2C(=O)c3ccccc3C2=O)cc1 | 1.78% |
| Cc1cc(C)n(CCNC(=O)CCc2nnc(CCc3ccccc3)o2)n1 | 12.1% |
